Patent publication US20190352389A1

Molecular target: human LIF (source not stated) (human) (UniProt P15018)
Assay: cell-based or functional assay

UniProt P15018, sequence (P15018 23-202 limits assumed): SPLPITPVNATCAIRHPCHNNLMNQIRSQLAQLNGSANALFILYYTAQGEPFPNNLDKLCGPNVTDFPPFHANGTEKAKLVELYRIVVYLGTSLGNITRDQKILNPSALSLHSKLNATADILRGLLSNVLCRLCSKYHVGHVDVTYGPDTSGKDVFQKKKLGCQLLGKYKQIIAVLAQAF

B1: r5D8 (parental rat 5D8) (antibody, from another filing)
heavy: QVQLQESGGGLVKPGGSLRLSCAASGFTFSHAWMHWVRQAPGKGLEWVGQIKAKSDDYATYYAESVKGRFTISRDDSKNTLYLQMNSLKTEDTAVYYCTCWEWDLDFWGQGTMVTVSSASTKGPSVFPLAPSSKSTSGGTAALGCLVKDYFPEPVTVSWNSGALTSGVHTFPAVLQSSGLYSLSSVVTVPSSSLGTQTYICNVNHKPSNTKVDKRV[left out - human IgG1 Fc]
light: DIVMTQTPLSSPVTLGQPASISCRSSQSLLDSDGHTYLNWLQQRPGQPPRLLIYSVSNLESGVPDRFSGSGAGTDFTLKISRVEAEDVGVYYCMQATHAPPYTFGQGTKLEIKRTVAAPSVFIFPPSDEQLKSGTASVVCLLNNFYPREAKVQWKVDNALQSGNSQESVTEQDSKDSTYSLSSTLTLSKADYEKHKVYACEVTHQGLSSPVTKSFNRGEC
IC90 (nM), pSTAT3, Endogenous LIF Condition, U251, Mean: 8.5 nM
